Source: PubChem BioAssay (Tox21)
The inconclusive results got no clear call from the source; some entries with a clear call stand among them for comparison. A potency beside an inconclusive call is a rough fit, not a confirmed value. Calls of active or inactive are those of the source. Calls follow the shape of the dose curve; as a rule, active = well fitted curve in the direction sought with a large enough effect in the repeat runs; inconclusive = weak or mixed curves; inactive = no such curve, though single readings can be large; an effect the other way counts as inactive or inconclusive.

test: Human pregnane X receptor (PXR) small molecule agonists, qHTS cell viability counter screen (AID 1346977); conditions: PXR-Luc HepG2 viability, CellTiter-Fluor, 24 h; series mostly up to 92.4 µM; activity change, negative = cytotoxicity: at the top concentration; also: nearly all actives have a fitted effect of over 50% in size
Summary of the method: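 Viability counter screen: CellTiter-Fluor signal in PXR-Luc HepG2 cells, 24hr compound exposure, 37C, 5% CO2.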
% is scaled to controls: 0 for no effect and ±100 for the full control effect; potency is read from the fitted curve at half-maximal effect; tags tell the direction and shape of the fitted curve.

Row | SMILES | Potency
1 | CCCCOCCOC(=O)c1ccccc1C(=O)OCCOCCCC | inconclusive: 70.8 µM [cytotoxic, single point] and inactive
2 | OC(CCN1CCCC1)(c1ccccc1)C1CCCCC1 (configuration not stated) | inconclusive: 13.3 µM [cytotoxic, full curve]
3 | C/C=C/C=C/COC(=O)C(C)C | active: 68.6 µM

test: Caspase-3/7 induction in HepG2 cells by small molecules, qHTS assay (AID 1346978); conditions: HepG2 caspase-3/7 activation, Caspase-Glo luminescence, 17 h; series mostly up to 92.4 µM; caspase activation: at the top concentration; also: nearly all actives have a fitted effect of over 15% in size
Summary of the method: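 Wild-type HepG2 cells (2,000/well) were settled 5 h at 37 C, 5% CO2, then exposed to compounds in DMSO for 17 h. Caspase-3/7 activity was read by luminescence 30 min after adding Caspase-Glo 3/7 reagent at room temperature.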

Row | SMILES | Potency | caspase activation
4 | C1CCC(C(CC2CCCCN2)C2CCCCC2)CC1 (configuration not stated) | active: 33.5 µM | 
5 | O=C1CC2CC1C1CCCC21 (configuration not stated) |  | inactive: 0.307%
6 | CN1CC[C@H](c2c(O)cc(O)c3c(=O)cc(-c4ccccc4Cl)oc23)[C@H](O)C1 | active: 0.237 µM | 
7 | CN1CCN(C2=Nc3cc(Cl)ccc3Nc3ccccc32)CC1 | inconclusive: 33.5 µM [activator] | 
8 | CN1CCN(CCCN2c3ccccc3Sc3ccc(S(=O)(=O)N(C)C)cc32)CC1 | inconclusive: 33.5 µM [activator, single point] | 
9 | OCCN1CCN(CCCN2c3ccccc3Sc3ccc(Cl)cc32)CC1 | inconclusive: 33.5 µM [activator, single point] | 
10 | C/C=C/C=C/C(=O)O | inactive | 
11 | CN1CCCC(CC2c3ccccc3Sc3ccccc32)C1 (configuration not stated) | inconclusive: 33.5 µM [activator, single point] | 
12 | CN1CCN(CCC(=O)N2c3ccccc3Sc3ccc(C(F)(F)F)cc32)CC1 | inconclusive: 33.5 µM [activator] | 
13 | CCCCCCCCCCCCCCCC[N+](C)(C)CCN(Cc1ccc(OC)cc1)c1ncccn1 | inconclusive: 33.5 µM [activator, single point] | 
14 | CCCCCCCCCCCC[N+](C)(C)CCCCCCCCCCCC | inconclusive: 21.7 µM [activator, partial curve] | 
15 | C#CCN(C)Cc1ccccc1 | inactive | 
16 | O=C1Cc2ccccc2N1c1c(Cl)cccc1Cl |  | inactive: -3.87%
17 | NC(N)=Nc1nc(CSCC/C(N)=N/S(N)(=O)=O)cs1 | inactive | 
18 | CCN(CCN)c1cccc(C)c1 | inactive | 
19 | Cc1nc(Nc2ncc(C(=O)Nc3c(C)cccc3Cl)s2)cc(N2CCN(CCO)CC2)n1 | inconclusive: 33.5 µM [activator, single point] | 

Row | SMILES | Potency | caspase activation
20 | CN1CCCN(C(c2ccccc2)c2ccc(Cl)cc2)CC1 (configuration not stated) | inconclusive: 33.5 µM [activator, single point] | 
21 | COc1ccc2cc(S(=O)(=O)N[C@H](CC(=O)N[C@H](Cc3ccc(CN4[C@H](C)CCC[C@@H]4C)cc3)C(=O)N(C)C(C)C)c3ccc4c(c3)OCO4)ccc2c1 | active: 57.9 µM | 
22 | NC(=O)c1ccccc1O | inactive | 
23 | CCCCCCCCCc1ccc(OCCOCCO)cc1 | inconclusive: 28.7 µM [activator, single point] | 
24 | CCCCCCCCOc1ccccc1C(=O)Nc1ccc(C(=O)OCC[N+](C)(CC)CC)cc1 | inconclusive: 33.5 µM [activator, partial curve, poor fit] | 
25 | COc1cc(C=C2CCC/C(=C\c3ccc(O)c(OC)c3)C2=O)ccc1O | inconclusive: 33.5 µM [activator, single point] | 
26 | CNC(=O)c1cc(Oc2ccc(NC(=O)Nc3ccc(Cl)c(C(F)(F)F)c3)cc2)ccn1 | inconclusive: 37.6 µM [activator, single point] | 
27 | CCCCC=O |  | inactive: 0.0572%
28 | CCCCCCCCC=O |  | inactive: -1.43%
29 | Cc1cc(N)n(-c2ccccc2)n1 |  | inactive: -7.72%
30 | CN1C[C@H](C(=O)N[C@]2(C)O[C@@]3(O)[C@@H]4CCCN4C(=O)[C@H](Cc4ccccc4)N3C2=O)C[C@@H]2c3cccc4[nH]cc(c34)C[C@H]21 | inconclusive: 33.5 µM [activator, single point] | 
31 | COc1ccc(C(=O)NCc2ccc(OCCN(C)C)cc2)cc1OC |  | inactive: -2.38% [at 42.5 µM]
32 | CCC(=O)OCc1ccccc1 |  | inactive: 0.155%
33 | Brc1cc(Br)c(Oc2cc(Br)c(Br)cc2Br)cc1Br |  | inactive: 1.83% [at 42.5 µM]
34 | O=C(O)CCCCCCCC(=O)O | inactive | 
35 | C=C[Si](OC(=C)C)(OC(=C)C)OC(=C)C |  | inactive: -0.618%

test: Caspase-3/7 induction in CHO-K1 cells by small molecules, qHTS cell viability counter screen (AID 1346979); conditions: CellTiter-Fluor fluorescence, 17 h; series mostly up to 92.4 µM; activity change, negative = cytotoxicity: at the top concentration; also: nearly all actives have a fitted effect of over 35% in size
Summary of the method: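 Viability readout by fluorescence (CellTiter-Fluor) on wild-type CHO-K1 cells exposed for 16hr at 37C and 5% CO2 to compounds delivered in DMSO; reagent incubated 1hr before reading.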

Row | SMILES | Potency | activity change, negative = cytotoxicity
36 | CN1CC[C@H](c2c(O)cc(O)c3c(=O)cc(-c4ccccc4Cl)oc23)[C@H](O)C1 | active: 0.0944 µM | 
37 | CN1CCN(C2=Nc3cc(Cl)ccc3Nc3ccccc32)CC1 | inconclusive: 21.1 µM [cytotoxic, partial curve] | 
38 | OCCN1CCN(CCCN2c3ccccc3Sc3ccc(Cl)cc32)CC1 | active: 29.8 µM | 
39 | CN1CCCC(CC2c3ccccc3Sc3ccccc32)C1 (configuration not stated) | inconclusive: 33.5 µM [cytotoxic, single point] | 
40 | C[C@H]1C[C@H](O)c2ccsc2S1(=O)=O | inconclusive: 10.6 µM [rising, partial curve, poor fit] | 
41 | O=C1Cc2ccccc2N1c1c(Cl)cccc1Cl | inconclusive: 68.6 µM [cytotoxic] | 
42 | NC(N)=Nc1nc(CSCC/C(N)=N/S(N)(=O)=O)cs1 | inconclusive: 68.6 µM [cytotoxic, partial curve, poor fit] | 
43 | CCOC(=O)C1=C(C)NC(C)=C(C(=O)OC)C1c1cccc(Cl)c1Cl (configuration not stated) | active: 13.3 µM | 
44 | COc1cc(C=C2CCC/C(=C\c3ccc(O)c(OC)c3)C2=O)ccc1O | active: 29.8 µM | 
45 | CNC(=O)c1cc(Oc2ccc(NC(=O)Nc3ccc(Cl)c(C(F)(F)F)c3)cc2)ccn1 | active: 26.6 µM | 
46 | Cc1c(F)c(N2CCNC(C)C2)cc2c1c(=O)c(C(=O)O)cn2C1CC1 (configuration not stated) |  | inactive: 1.16% [at 42.5 µM]
47 | CCCCCCOc1ccccc1C(N)=O | inconclusive: 37.6 µM [cytotoxic, single point] | 
